Results from PMC4336329 (PLoS ONE, 2015).
In all, about 310,000 compounds went through this assay and about 2,200 (0.71%) showed an effect of 50% or more. The effect is printed as a negative number. This is one part of the list.

target: human ether-à-go-go-related gene (hERG) potassium channel (human, UniProt Q12809); experiment: primary screen, population patch clamp on CHO cells stably expressing hERG
Sequence (Q12809 whole entry, looked up): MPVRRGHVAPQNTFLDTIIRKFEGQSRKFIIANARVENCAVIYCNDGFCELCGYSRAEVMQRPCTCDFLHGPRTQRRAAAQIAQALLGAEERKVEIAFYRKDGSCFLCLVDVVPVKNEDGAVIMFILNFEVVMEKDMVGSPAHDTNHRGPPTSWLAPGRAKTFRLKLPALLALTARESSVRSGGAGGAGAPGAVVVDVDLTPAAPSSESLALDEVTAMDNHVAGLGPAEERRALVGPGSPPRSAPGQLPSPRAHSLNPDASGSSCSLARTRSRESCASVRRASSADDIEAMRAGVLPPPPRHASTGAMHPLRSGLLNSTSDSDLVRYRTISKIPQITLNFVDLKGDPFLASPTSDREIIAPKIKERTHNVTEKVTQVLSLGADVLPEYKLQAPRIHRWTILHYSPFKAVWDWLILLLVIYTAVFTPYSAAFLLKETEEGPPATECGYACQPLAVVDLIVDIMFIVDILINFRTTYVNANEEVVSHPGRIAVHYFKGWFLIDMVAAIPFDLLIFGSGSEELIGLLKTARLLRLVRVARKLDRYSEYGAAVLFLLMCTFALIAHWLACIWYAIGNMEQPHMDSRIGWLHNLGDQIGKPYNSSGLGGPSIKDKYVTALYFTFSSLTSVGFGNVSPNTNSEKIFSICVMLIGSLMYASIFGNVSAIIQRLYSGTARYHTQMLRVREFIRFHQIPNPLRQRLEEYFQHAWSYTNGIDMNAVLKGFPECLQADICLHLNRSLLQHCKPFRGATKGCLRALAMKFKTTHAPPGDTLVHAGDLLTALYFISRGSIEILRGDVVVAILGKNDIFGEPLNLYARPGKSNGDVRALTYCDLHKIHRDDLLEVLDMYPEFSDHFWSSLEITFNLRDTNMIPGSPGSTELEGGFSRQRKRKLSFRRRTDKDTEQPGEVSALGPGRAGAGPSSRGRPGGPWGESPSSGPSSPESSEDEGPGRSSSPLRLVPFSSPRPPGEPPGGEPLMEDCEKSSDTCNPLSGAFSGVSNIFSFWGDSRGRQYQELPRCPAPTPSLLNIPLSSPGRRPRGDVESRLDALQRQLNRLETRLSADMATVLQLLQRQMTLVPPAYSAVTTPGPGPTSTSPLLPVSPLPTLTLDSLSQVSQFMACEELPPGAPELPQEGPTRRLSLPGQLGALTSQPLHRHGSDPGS

SMILES	hERG current change (%, negative = inhibition) at 1uM [%]
CN(C)C(=O)CSc1n[nH]c(=O)[nH]c1=O	4.75
CCCc1cc(NCCCN(C)C)n2c(nc3ccccc32)c1C#N	12.7
O=C(CN(CCN1CCOCC1)C(=O)Cn1nnc(-c2ccc(F)cc2)n1)NC1CCCCC1	1.7
CC(/C=N/NC(=O)CSc1nc2ccccc2n1C)=C\c1ccco1	0.302
Cc1ccccc1CN1[C@@H](C(C)C)COCCS1(=O)=O	13.6
Cc1ccc(SCCC(=O)OCC(=O)NCC2CCCCC2)cc1	7.43
Cc1ccc(C)c(S(=O)(=O)Nc2ccc(O)cc2)c1	7.49
COc1ccccc1CCC(=O)OCC(=O)c1c(N)n(CC(C)C)c(=O)n(C)c1=O	-8.42
CCOC(=O)c1cc(NC(=O)c2cccnc2)ccn1	8.72
CCn1c2ccccc2c2cc(NC(=O)CNCC3CCCO3)ccc21.O=C(O)C(=O)O (stereo not drawn)	9.64
CC1(C)CC(c2csc(N)n2)CCO1 (stereo not drawn)	9.83
Cl.c1ccc(CNc2nc(NCc3ccccc3)c3ccccc3n2)cc1	16.8
O=C(c1cccn2c(=O)c3cc(Cl)ccc3nc12)N1CCN(Cc2ccc3c(c2)OCO3)CC1	-33.5
CC(C)CC(COCc1ccc(Cl)cc1)N1CCN(C(=O)c2ccc(C(F)(F)F)cc2)CCC1=O (stereo not drawn)	-5.92
O=C(NC(=S)Nc1ccccc1N1CCOCC1)c1ccc(-c2ccccc2F)o1	14.7
CC(C)(O)C#Cc1ccc(CN2CCN(Cc3ccccc3)C(CCO)C2)cc1 (stereo not drawn)	12.1
Cc1ccccc1NC(=O)CSc1ccc(-c2cccnc2)nn1	1.7
COc1ccc(NC(=O)C(NC(C)=O)C(=O)NCc2ccccc2)cc1 (stereo not drawn)	7.92
COc1ccc(C(=O)Nc2ccc(-c3n[nH]c(=S)o3)cc2)cc1OC	16.8

SMILES	hERG current change (%, negative = inhibition) at 1uM [%]
COc1ccc(N(C)S(=O)(=O)c2c(C)[nH]c(=O)[nH]c2=O)cc1	-6.94
CCOC(=O)/C(=N\Nc1ccccc1[N+](=O)[O-])c1csc(Nc2ccccc2)n1	13.2
CC(C(=O)Nc1nccs1)N1C(=O)c2ccccc2S1(=O)=O (stereo not drawn)	7.64
CCc1nnc(NC(=O)CCc2nc(C3=CCN(C)CC3)no2)s1	11.3
Cc1cccc(N2CCN(C(=S)NCCc3ccccc3)CC2)c1C	10.1
CCOC(=O)CNc1nc2ccccc2n2c(C)nnc12	3.97
O=C(N/N=C/c1cccc(Oc2ccccc2)c1)c1cc[n+]([O-])cc1	-0.621
CCOC(=O)c1sc2ncn(C(CC)C(=O)OC)c(=O)c2c1C (stereo not drawn)	11.5
COc1ccc(S(=O)(=O)N2CCCN(CC(=O)Nc3ccc(OC)c(Cl)c3)CC2)cc1	7.89
COc1cc(NC(=S)NCCN2CCOCC2)cc(OC)c1	5.31
COc1ccc(Cc2c(O)nc(SCC(=O)NC(C)(C)C)[nH]c2=O)cc1	12.2
C=CCOc1ccc(CNc2ccc3[nH]c(=O)[nH]c3c2)cc1OCC	7.04
O=C(NCc1ccccc1)C(c1ccccc1)N(C(=O)c1csnn1)C1CCCC1 (stereo not drawn)	8.62
CCOC(=O)N1CCN(C(=O)CSc2nnc(-c3cccs3)o2)CC1	3.19
CC(C)(C)c1ccc(-c2n[nH]c(=S)n2/N=C/c2ccncc2)cc1	12.7
CN1CCN(C(=S)NC(CC(=O)c2ccccc2)c2ccccc2)CC1 (stereo not drawn)	8.1
C=C(C)COc1ccc(-c2nc(N)ncc2Oc2ccccc2OC)c(O)c1	1.36
O=C(O)CCCn1cc(NC(=O)COc2ccc(F)cc2)cn1	11
CN=C1S/C(=C/c2cn(CC(=O)OC)c3ccccc23)C(=O)N1C	10.2

SMILES	hERG current change (%, negative = inhibition) at 1uM [%]
Cc1ccc2c(c1)C=CC(C)(C)S2(=O)=O	17.1
Cc1cc(=O)oc2cc(OCC(=O)OCC(=O)Nc3ccc4ccccc4c3)ccc12	-6.93
Cc1nn(C)c(C(=O)N/N=C/c2ccccc2)c1[N+](=O)[O-]	12.8
COc1ccc(CC(=O)NNC(=O)c2nn(Cc3ccccc3)c(=O)c3ccccc23)cc1OC	11.7
Cc1noc(C)c1C(=O)Nc1cccc(S(=O)(=O)N2CCOCC2)c1	6.56
CCCCc1ccc(-c2csc(/C(C#N)=C/c3ccco3)n2)cc1	-0.88
COc1cc(C(=O)O/N=C(\N)c2ccncc2)cc(OC)c1OC	2.58
COC(=O)C1CCCCN1C(=O)c1cccc(OC2CCN(C(=O)C3CC3)CC2)c1 (stereo not drawn)	12.2
Clc1cccc(Cl)c1CN1CCN(c2ncccn2)CC1	19.9
CCOc1ccccc1C(=O)Nc1nnc(COC)s1	4.5
Cc1cc(C(=O)CN2C(=O)NC(c3ccccc3)(c3ccccc3)C2=O)c(C)n1Cc1ccccc1	-1.27
O=C(CNC(=O)c1cccs1)OCc1ccc(Br)cc1	7.97
CNC(=O)C1CC(=O)N(Cc2ccc(OC)c(OC)c2)C(=Nc2ccc(OC)cc2)S1 (stereo not drawn)	10
CC(C)N1C(=O)CCC1C(=O)N1CCN(c2ccc(F)cc2)CC1 (stereo not drawn)	10.5
COc1ccc(CN(C(=O)c2cc(=O)c3ccccc3o2)C2CCS(=O)(=O)C2)cc1OC (stereo not drawn)	10.9
CC(=O)c1sc(NC(=O)c2cccc(N3C(=O)CCC3=O)c2)nc1-c1ccccc1	6.03
O=C(CCC(=O)c1cccs1)c1cccs1	12.6
CCC(C)NC(=O)CSC1=Nc2ccccc2C2=NC(CCC(=O)NCc3ccco3)C(=O)N12 (stereo not drawn)	9.53
N#Cc1cc2c(nc1SCC(=O)N1CCCCC1)CCCC2	13.3
